Laboratory results from the supplement of paper PMC9174493.
The list shows a part of the results. Single values of this set are uncertain. Values with irradiation are relative to irradiated vehicle.

system: A549-Dual; experiment: NF-kB reporter (SEAP) activity, viability-corrected, relative to vehicle (fold change vs vehicle); higher = more activation of STING-IRF / NF-kB immune response reporter; conditions: 0.3 µM; irradiation: 8 Gy/4 fr
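Further: viability correction based on the alamar blue assay, with concentrations leaving 10% survival or less dropped.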

Structure (SMILES) | NF-kB reporter
CC1=C(CC(=O)O)c2cc(F)ccc2/C1=C\c1ccc(S(C)=O)cc1 (stereo not given) [Sulindac] | 0.891
C1N2CN3CN1CN(C2)C3 [Methenamine] | 1.39
COc1ccc2cc(C(C)C(=O)[O-])ccc2c1.[Na+] (stereo not given) [Naproxen Sodium] | 0.974
Cc1ccc(Cl)c(Nc2ccccc2C(=O)[O][Na])c1Cl [Meclofenamate Sodium] | 1.34
O=C(OCCOCCO)c1ccccc1Nc1cccc(C(F)(F)F)c1 [Etofenamate] | 1
O=C([O-])c1cc(N=Nc2ccc(O)c(C(=O)[O-])c2)ccc1O.[Na+].[Na+] [Olsalazine Sodium] | 1.41
CC(=O)Nc1ccc(OC(=O)c2ccccc2OC(C)=O)cc1 [Benorylate] | 1.01
CO/N=C(\C(=O)NC1C(=O)N2C(C(=O)OCOC(=O)C(C)(C)C)=C(C)CSC12)c1csc(N)n1.Cl (stereo not given) [Cefetamet pivoxil hydrochloride] | 1.11
CCC(C(=O)O)c1ccc(N2Cc3ccccc3C2=O)cc1 (stereo not given) [Indobufen] | 1.15
CS(=O)(=O)O.Cc1ccc(NC(=O)c2ccc(CN3CCN(C)CC3)cc2)cc1Nc1nccc(-c2cccnc2)n1 [Imatinib Mesylate (STI571)] | 0.902
CC(C(=O)O)c1ccc(C(=O)c2ccccc2)s1 (stereo not given) [Tiaprofenic acid] | 1.46
CCc1nc(N)nc(N)c1-c1ccc(Cl)cc1 [Pyrimethamine] | 1.1
COc1cc(C2c3cc4c(cc3C(OC3OC5COC(C)OC5C(O)C3O)C3COC(=O)C23)OCO4)cc(OC)c1O (stereo not given) [Etoposide] | 1.33
CN(C)CCC(c1ccc(Br)cc1)c1ccccn1.O=C(O)/C=C\C(=O)O (stereo not given) [Brompheniramine hydrogen maleate] | 0.988
CC12CCC3c4ccc(O)cc4CC(CCCCCCCCCS(=O)CCCC(F)(F)C(F)(F)F)C3C1CCC2O (stereo not given) [Fulvestrant] | 0.901
O=C([O-])CC(O)(CC(=O)[O-])C(=O)[O-].O=C([O-])CC(O)(CC(=O)[O-])C(=O)[O-].[BiH6+3].[K+].[K+].[K+] [Gastrodenol] | 1.64
CCCCC1(COC(=O)CCC(=O)O)C(=O)N(c2ccccc2)N(c2ccccc2)C1=O [Suxibuzone] | 1.47
O=C(O)Cc1ccccc1Nc1c(Cl)cccc1Cl.OCCN1CCCC1 [Diclofenac Epolamine] | 0.758
Cl.N=C1CCCN1Cc1[nH]c(=O)[nH]c(=O)c1Cl.O=c1[nH]c(=O)n(C2CC(O)C(CO)O2)cc1C(F)(F)F.O=c1[nH]c(=O)n(C2CC(O)C(CO)O2)cc1C(F)(F)F (stereo not given) | 0.772
NC(CO)(CO)CO [Trometamol] | 1.03

Structure (SMILES) | NF-kB reporter
COc1ccc2c(c1)c(CC(=O)O)c(C)n2C(=O)c1ccc(Cl)cc1 [Indomethacin] | 0.929
Cn1cnc([N+](=O)[O-])c1Sc1ncnc2nc[nH]c12 [Azathioprine] | 0.946
NCCNc1ccc(NCCN)c2c1C(=O)c1ccncc1C2=O.O=C(O)/C=C\C(=O)O.O=C(O)/C=C\C(=O)O [Pixantrone Maleate] | 0.878
CC(=O)Oc1cccc2c1C(=O)c1c(OC(C)=O)cc(C(=O)O)cc1C2=O [Diacerein] | 0.916
CNCC(O)c1ccc(O)c(O)c1.O=C(O)C(O)C(O)C(=O)O (stereo not given) [Epinephrine bitartrate] | 0.992
CC1(C(=O)O)CCC2(C)CCC3(C)C(=CC(=O)C4C5(C)CCC(OC6OC(C(=O)O)C(O)C(O)C6OC6OC(C(=O)O)C(O)C(O)C6O)C(C)(C)C5CCC43C)C2C1.N.N (stereo not given) [Diammonium Glycyrrhizinate] | 1.21
CCCCCCCCCCCCCCCCCCOP(=O)([O-])OC1CC[N+](C)(C)CC1 [Perifosine (KRX-0401)] | 0.826
COc1c2occc2cc2ccc(=O)oc12 [Methoxsalen] | 0.939
O=C(O)CCCN1CCC(OC(c2ccc(Cl)cc2)c2ccccn2)CC1 (stereo not given) [Bepotastine] | 1.25
CN(C)CCCOc1nn(Cc2ccccc2)c2ccccc12.Cl [Benzydamine HCl] | 1.1
CC(C(=O)O)c1ccc2c(c1)[nH]c1ccc(Cl)cc12 (stereo not given) [Carprofen] | 1.12
COc1cc2nccc(Oc3ccc(NC(=O)Nc4cc(C)on4)c(Cl)c3)c2cc1OC [Tivozanib (AV-951)] | 0.816
Oc1ccc(/C=C/c2cc(O)cc(O)c2)cc1 [Resveratrol] | 1.06
Nc1cccc2c1C(=O)N(C1CCC(=O)NC1=O)C2=O (stereo not given) [Pomalidomide] | 0.972
COc1cc(C2c3cc4c(cc3C(OC3OC5COC(c6cccs6)OC5C(O)C3O)C3COC(=O)C23)OCO4)cc(OC)c1O (stereo not given) [Teniposide] | 0.764
S=c1nc[nH]c2nc[nH]c12 [Mercaptopurine (6-MP)] | 0.893
CC(C(=O)O)c1ccc2c(c1)CC(=O)c1ccccc1S2 (stereo not given) [Zaltoprofen] | 0.804
Cc1nc(Nc2ncc(C(=O)Nc3c(C)cccc3Cl)s2)cc(N2CCN(CCO)CC2)n1.Cl [Dasatinib hydrochloride] | 0.692
O=c1[nH]cc(F)c(=O)[nH]1 [Fluorouracil (5-Fluoracil, 5-FU)] | 1.54
COc1cc(/C=C/C(=O)/C=C(O)/C=C/c2ccc(O)c(OC)c2)ccc1O [Curcumin] | 0.915
